Out of some 220,000 compounds screened, about 16,000 (7.3%) were called active. The inconclusive results got no clear call from the source; some entries with a clear call stand among them for comparison. Calls come from the whole dose curve; as a rule, active = well fitted inhibition curve with a large enough effect (not every such curve was filed as active); inconclusive = small, poorly fitted or top-dose-only effect, or another doubt; inactive = no such curve, though single readings can be large or run the other way. A potency beside an inconclusive call is a rough fit, not a confirmed value.
molecular target: Aldehyde dehydrogenase 1A1 (Homo sapiens) (UniProt P00352); assay: qHTS Assay for Inhibitors of Aldehyde Dehydrogenase 1 (ALDH1A1); conditions: Purified ALDH1A1, NADH fluorescence, propionaldehyde substrate; series mostly up to 75.3 µM; activity, negative = inhibition: at the top concentration;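 for activity, negative = inhibition: plate controls were no enzyme wells and a reference inhibitor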
Potency is the fitted concentration of half-maximal effect; tags give direction and shape of the fitted curve.

UniProt P00352, sequence (P00352 whole entry, looked up): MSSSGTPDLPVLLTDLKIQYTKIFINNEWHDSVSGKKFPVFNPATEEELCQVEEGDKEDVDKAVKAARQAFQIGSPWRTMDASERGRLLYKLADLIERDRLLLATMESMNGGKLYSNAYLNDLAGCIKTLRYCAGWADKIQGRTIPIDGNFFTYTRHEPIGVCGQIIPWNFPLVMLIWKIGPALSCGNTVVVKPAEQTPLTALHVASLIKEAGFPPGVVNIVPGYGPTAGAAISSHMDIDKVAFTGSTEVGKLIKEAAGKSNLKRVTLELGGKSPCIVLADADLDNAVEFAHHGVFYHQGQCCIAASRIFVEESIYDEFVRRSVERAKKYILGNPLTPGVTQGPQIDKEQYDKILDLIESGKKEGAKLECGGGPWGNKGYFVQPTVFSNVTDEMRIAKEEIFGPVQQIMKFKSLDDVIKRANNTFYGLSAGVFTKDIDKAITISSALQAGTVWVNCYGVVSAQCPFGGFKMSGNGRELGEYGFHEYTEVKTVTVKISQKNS

activity, negative = inhibition, inactive:
COC(=O)c1cc(-c2ccc(Br)cc2)on1 -2.84%
O=C(O)C1Cc2c([nH]c3ccccc23)C(c2ccccc2)N1 (configuration not stated) 2.39% [at 13.5 µM]
CCCOc1ccc(C(=O)c2nc3c(n2O)CCCC3)cc1 7.53%
CCCc1cc(-c2nc(-c3ccc(Cl)cc3)cs2)ccn1 -13.2%
CN(C)C(=O)CSc1cnc2ccccc2n1 1.01%
O=C(Nc1ccccc1)C1CCCCC1 7.6%
CCCCc1nc2c(c3c1C[C@H](C)OC3)CN(C(=O)N[C@@H](C)c1ccccc1)CC2 14.6% [at 13.5 µM]
C=C(C)c1cccc(C(C)(C)NC(=O)N(Cc2ccccc2)Cc2ccco2)c1 -4.85%
C=CCn1c(SCC(=O)NCC(=O)OCC)nnc1-c1ccccn1 7.02%
COc1cccc(/C=N/NC(=O)c2ccc(OCc3cccc(Br)c3)cc2)c1 -80%
Cc1cc(NC(=O)c2ccc(NC(=O)C3CC3)cc2)no1 4.17%
CC(C(=O)NCc1ccco1)c1ccc([N+](=O)[O-])cc1 (configuration not stated) 5.51%
CC(=O)NC(c1ccccc1)c1cccnc1 (configuration not stated) -2.23%
COC(=O)c1ccc(C)c(NC(=O)CCSc2ccccc2)c1 -16.2%
COc1ccc(N2C(N)=C(C#N)C(c3ccsc3)C3=C2CCCC3=O)c(OC)c1 (configuration not stated) -3.35%
O=C1C=C(NCc2ccco2)CC(c2ccc(Cl)cc2)C1 (configuration not stated) 5.57%
COP(=O)(OC)OC(c1ccc(Cl)cc1)P(=O)(OC)OC (configuration not stated) 5.62%
CCc1nnc(NC(=O)C2CCCN(S(=O)(=O)c3ccccc3)C2)s1 (configuration not stated) -4.77%
COC(=O)c1sccc1NC(=S)N1CCC(C(N)=O)CC1 -2.5%
COc1ccc(OC)c(Nc2cc(C)nc3nc(C)nn23)c1 0.634%
CC/C=C\C/C=C\C/C=C\C/C=C\C=C\C(O)CCCC(=O)O (configuration not stated) -1.55%
CCc1ccc(N2CC(C(=O)NCc3ccco3)CC2=O)cc1 (configuration not stated) -1.82%
CCN(CCn1cccn1)C(=O)CC1C(=O)NCCN1Cc1cccc(OC)c1OC (configuration not stated) 0.331%
COCCNC(=O)/C(C#N)=C/c1ccccc1Br -7.79%
Cc1ccnc(NS(=O)(=O)c2ccc(NC(=O)c3ccc(S(=O)(=O)N4CCOCC4)cc3)cc2)n1 -5.25%
O=C(CSCCOc1ccccc1)NCc1ccncc1 -1.28%

Potency, active:
CC(C)(C)OC(=O)NCCCC[C@H](NC(=O)c1nc[nH]c1C(=O)NC(c1ccccc1)c1ccccc1)C(=O)OC(C)(C)C 2.82 µM
CCOC(=O)c1nc(C)sc1-c1ccnn1S(=O)(=O)c1ccc(C)cc1 3.16 µM
O=C1C(NS(=O)(=O)c2cccs2)=C(N2CCN(c3ccccc3)CC2)C(=O)c2ccccc21 3.55 µM
O=C(CSc1nnnn1C1CCCC1)Nc1ccc2c(c1)OCO2 11.2 µM
O=C(CSc1nnc(-c2ccc3c(c2)OCCO3)o1)N1CCCC1 25.1 µM
C=CCN1C(=O)C(Cc2ccc(OC)cc2)S/C1=N/N=C/c1ccco1 (configuration not stated) 7.08 µM
CC1(C)CC(=O)C(=CN2CCOCC2)C(=O)C1 10 µM
CCCCS(=O)(=O)N1CCc2nc(-c3ccc(OC)cc3C)c3c(c2C1)CO[C@@H](c1ccccc1)C3 0.447 µM
COC(=O)c1ccc(OC(=O)C2CC(=O)N(c3cccc(C)c3)C2)cc1 (configuration not stated) 17.8 µM
CC1CCN(c2nc3ccc(C(=O)N4CCN(Cc5ccccc5)CC4)cc3s2)CC1 20 µM
O=C(COc1ccc(/C=N/NS(=O)(=O)c2ccccc2)cc1)NCCc1ccccc1 12.6 µM
COCCn1cnnc1SCC(=O)Nc1ccc(Br)cc1F 12.6 µM
COc1ccc(C(=O)N2CCN(Cc3ccc4c(c3)OCO4)CC2)cc1[N+](=O)[O-] 1.58 µM
FC(F)(F)c1cccc(NC(=S)Nc2ccc(Cl)c(Cl)c2)c1 12.6 µM
CCN(CC)c1ccc(C2NCC(c3ccc([N+](=O)[O-])cc3)O2)cc1 (configuration not stated) 0.282 µM
CCOC(=O)c1ccc(-n2c(CN3CCC(C(N)=O)CC3)nc3ccc([N+](=O)[O-])cc3c2=O)cc1 8.91 µM

Potency, inconclusive:
C[C@H]1C(c2cccc(Cl)c2)=NN(c2ccccc2)[C@@H]1CO 31.6 µM [inhibitor, partial curve]
COc1ccc(CN(C(=O)CN2C(=O)c3ccccc3S2(=O)=O)C(C(=O)NCC2CCCO2)c2ccncc2)cc1 (configuration not stated) 14.1 µM [inhibitor, partial curve]
O=C(NC1CCCCC1)C(c1cccs1)N(Cc1cccs1)C(=O)c1ccco1 (configuration not stated) 39.8 µM [inhibitor, single point]
CN(CCO)c1c2c(nc3cc(-c4cccc(F)c4)nn13)CCCC2 28.2 µM [inhibitor, partial curve]
Cc1cccn2c(CNCCCn3ncc4ccccc43)c(C(=O)N3CCCCC3)nc12 28.2 µM [inhibitor, single point]
Cc1ccc(C)n1-c1ccc(C(=O)/C=C/N(C)C)cc1 25.1 µM [inhibitor, single point]
O=C(CCCSc1nc2ccccc2[nH]1)Nc1nnc(C2CC2)s1 44.7 µM [inhibitor, single point]
O=c1c2ccccc2nnn1COc1cccc2ccccc12 22.4 µM [inhibitor, single point]
O=C(Nc1ccccc1C(F)(F)F)c1ccc(F)c(S(=O)(=O)N2CCOCC2)c1 35.5 µM [inhibitor, single point]
COc1ccc(C(=O)NCc2nnc(SCC(=O)N3CCc4ccccc43)n2Cc2ccccc2)cc1 12.6 µM [inhibitor, partial curve]
O=C(CC1C(=O)NCCN1Cc1ccc(-c2ccccc2)cc1)NC1CCC1 (configuration not stated) 37.7 µM [inhibitor, single point]
O=C(c1ccc(F)cc1)N1CCN(C2CC3CCC2C3)CC1 (configuration not stated) 39.8 µM [inhibitor, single point]
C(=N\C(/N=C/c1ccco1)c1ccco1)/c1ccco1 25.1 µM [inhibitor, single point]
C=C(C(C)=O)C(O)c1ccco1 (configuration not stated) 25.1 µM [inhibitor, partial curve]
O=C(CSc1ccc2c(c1)OCCO2)Nc1cccc(S(=O)(=O)N2CCCCC2)c1 31.6 µM [inhibitor, single point]
O=S(=O)(NCCOC12CC3CC(CC(C3)C1)C2)c1cccc2nsnc12 25.1 µM [inhibitor, single point]
COC(=O)c1cc2c(=O)n3ccccc3nc2n(C)c1=N 14.1 µM [inhibitor, partial curve]
COc1ccc(C(=O)ON=C2C=C(C)C(=O)C(C)=C2)cc1 0.891 µM [inhibitor, full curve]
O=C(NCc1ccccc1)c1ccc(CN(c2ccccn2)S(=O)(=O)c2ccccc2)cc1 39.8 µM [inhibitor, single point]
Cc1cc2cc(CNS(=O)(=O)c3ccccc3)ccc2n1C 20 µM [inhibitor, partial curve]
S=C(NCc1ccco1)Nc1ccc(Oc2ccccc2)cc1 39.8 µM [inhibitor, single point]
CCN(CC(=O)Nc1ccc2c(c1)OCCO2)S(=O)(=O)c1cccs1 89.1 µM [inhibitor, partial curve, poor fit]
COc1ccc2c(c1)C1=NN(/C(C)=C\C(C)=O)C(c3ccccc3)C1CC2 (configuration not stated) 39.8 µM [inhibitor, single point]
COc1ccc(NC(=O)CSc2nc3c(c(=O)n2-c2ccc(C)cc2)SCC3)c(OC)c1 14.1 µM [inhibitor, partial curve]
Cn1c(NNC(=O)CCC2CCCCC2)cc(=O)n(C)c1=O 1.41 µM [inhibitor, full curve, poor fit]
COc1ccc(S(N)(=O)=O)cc1C(=O)NCCCN1CCN(c2ccccc2OC)CC1 44.7 µM [inhibitor, single point]
COc1cc(/C=N/NC(=O)c2ccc(CSc3nc4ccccc4[nH]3)cc2)ccc1O 39.8 µM [inhibitor, single point]
N=c1c(C(=O)NCc2ccccc2)cc2c(=O)n3ccccc3nc2n1CCCN1CCOCC1 20 µM [inhibitor, partial curve]
CCCCc1ccc(/C=C2/C(=O)ON=C2c2ccccc2)s1 7.94 µM [inhibitor, full curve]
Cc1cccc(OCC(=O)Nc2ccc(N3CCN(C(=O)c4ccccc4)CC3)cc2)c1 39.8 µM [inhibitor, single point]
O=C1CCC2c3ccc4ccccc4c3CCN12 (configuration not stated) 39.8 µM [inhibitor, single point]
O=C(CSc1ccsc1[N+](=O)[O-])N1CCN(c2ccccn2)CC1 44.7 µM [inhibitor, single point]
CCOc1cc(N2CCOCC2)c(OCC)cc1NC(=O)CN1C(=O)NC(C)(C2CC2)C1=O (configuration not stated) 3.55 µM [inhibitor, single point]
COc1ccc(C(=O)Nn2c(SCC(=O)c3ccc(Cl)cc3)nc3ccccc3c2=O)cc1 20 µM [inhibitor, single point]

Potency, inactive:
CC(CN(C)C)CN1c2ccccc2CCc2ccccc21 (configuration not stated)
